Experimental findings from the supplement of paper PMC9135407 are described below.

The structures appear in SMILES notation. Several values for one entry are separate records, joined by “and”; a condition that tells them apart may be missing. Equal entries are not always repeated. Structures can show the parent of a compound that is named as a salt. About 620 (11%) of roughly 5,800 compounds showed activity.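 The calls were made as follows: active = score above a cut-off or among the top three wells of a plate; in these data no inactive exceeds 0.85.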 Only a part is listed here, and it is no random draw.

The test deals with primary human hepatic stellate cells (donor 1). Put plainly: scaled lipid accumulation score (0 = DMSO-like, 1 = nortriptyline-like); higher = stronger HSC inactivation (lipid re-accumulation), active = hit call of the paper. The settings on record: 48 h. As for the experimental part: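 Primary lipid accumulation screen in primary human hepatic stellate cell myofibroblasts (donor 1, passage 8) in 384-well plates. 100 nL of library compound was pin-transferred into 30 µL medium in duplicate, and cells were treated for 48 h. The 'Scaled' score combines distance from plate baseline, toxicity and reproducibility penalties, and is normalised to nortriptyline (positive) and DMSO (negative) controls on each plate. A hit is defined as scaled >0.85 or among the top 3 wells per plate.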

The mark [1] stands for this setting: library stock concentration: 10 mM.

`CCC[C@@H]1CC2=CC(=O)CC[C@]2(C)[C@H]2CC[C@@]3(C)[C@@H](CC[C@@]3(O)CCC(=O)O)[C@H]12`: the “scaled lipid accumulation score” value under setting [1] was inactive: 0.026. In the case of `CC1=C2C(=CO[C@H](C)[C@H]2C)C(O)=C(C(=O)O)C1=O` [Citrinin], under setting [1], the “scaled lipid accumulation score” value was inactive: ≤ 0. Same read-out and setting: for `C[C@]12CC[C@@H](O)C[C@@H]1CC[C@@H]1[C@@H]2CC[C@]2(C)[C@@H](C(=O)CO)CC[C@@H]12` [3-alpha,21-Dihydroxy-5-alpha-pregnan-20-one] the value was inactive: ≤ -0.007. Take `C[C@@H]1O[C@@H](O[C@H]2C[C@@H](O)[C@]3(CO)[C@H]4[C@H](O)C[C@]5(C)[C@@H](C6=CC(=O)OC6)CC[C@]5(O)[C@@H]4CC[C@]3(O)C2)[C@H](O)[C@H](O)[C@H]1O.O.O.O.O.O.O.O.O` [Strophantine octahydrate]: the “scaled lipid accumulation score” value was active: 1.02. As to `Cc1nnc2n1-c1sc(CCC(=O)N3CCOCC3)cc1C(c1ccccc1Cl)=NC2`, the “scaled lipid accumulation score” value under setting [1] is inactive: ≤ -0.001.

As for `CC[N+]1(C)CCCC(OC(=O)C(O)(c2ccccc2)c2ccccc2)C1` (stereo unspecified) [Pipenzolate bromide], the “scaled lipid accumulation score” value is inactive: ≤ 0. Moreover, the “scaled lipid accumulation score” value under setting [1] is inactive: ≤ -0.027. As for `C/C=C(/C)C(=O)O[C@H]1C(C)=C2[C@H]([C@@H]1OC(=O)CCCCCCC)[C@@](C)(OC(C)=O)C[C@H](OC(=O)CCC)[C@@]1(O)[C@H]2OC(=O)[C@@]1(C)O` [Thapsigargin], the “scaled lipid accumulation score” value (library stock concentration: 7.7 mM) is inactive: 0.266 and the “scaled lipid accumulation score” value under setting [1] was inactive: ≤ 0. As for `COC1(C[S@+]([O-])c2ccccc2)CCN(CCc2c[nH]c3ccc(F)cc23)CC1`, under setting [1], the “scaled lipid accumulation score” value was inactive: 0.611. For `NC(C(=O)O)c1nn[nH]n1` (racemic) [(RS)-(Tetrazol-5-yl)glycine], the “scaled lipid accumulation score” value under setting [1] was inactive: ≤ 0. As for `CCCN(CCC)[C@H]1CCc2c(F)ccc(O)c2C1` [S(-)-UH-301 hydrochloride], the “scaled lipid accumulation score” value under setting [1] is inactive: 0.149. In the case of `c1ccc(C2CNCc3ccccc32)cc1` (stereo unspecified) [4-Phenyl-1,2,3,4-tetrahydroisoquinoline hydrochloride], under setting [1], the “scaled lipid accumulation score” value is inactive: 0.217. In the case of `COc1ccc2c(c1)[nH]c1c(C)nccc12.Cl` [Harmine hydrochloride], the “scaled lipid accumulation score” value was active: 0.89.

For `c1ccc2c(c1)OCC(C1=NCCN1)O2` (stereo unspecified) [Idazoxan hydrochloride], the “scaled lipid accumulation score” value is inactive: ≤ 0. Further, under setting [1], the “scaled lipid accumulation score” value is inactive: 0.384 and inactive: 0.15. On to `Cc1cc([C@@H]2CCCN2C)on1` [ABT-418 hydrochloride], for which, under setting [1], the “scaled lipid accumulation score” value was inactive: ≤ 0. Turning to `CN1C(=O)CN=C(c2ccccc2)c2cc(Cl)ccc21` [Diazepam], the “scaled lipid accumulation score” value under setting [1] is inactive: ≤ 0.

Take `C[C@]12CC[C@H](O)CC1=CC[C@@H]1[C@@H]2CC[C@]2(C)C(=O)CC[C@@H]12`: the “scaled lipid accumulation score” value under setting [1] was inactive: ≤ 0. For `C[C@]12CC[C@H](O)CC1=CC[C@@H]1[C@@H]2CC[C@]2(C)C(=O)CC[C@@H]12` [Dehydroepiandrosterone (DHEA)], the “scaled lipid accumulation score” value reads like this: (library stock concentration: 3.33 mM) inactive: ≤ 0; under setting [1], inactive: ≤ 0. For the compound `C[C@]12CC[C@H](O)CC1=CC[C@@H]1[C@@H]2CC[C@]2(C)C(=O)CC[C@@H]12` [Dehydroepiandrosterone], the “scaled lipid accumulation score” value (library stock concentration: 6.9 mM) was inactive: 0.032. For the compound `COc1cc2c(c(OC)c1OC)-c1ccc(OC)c(=O)cc1[C@@H](NC(C)=O)CC2` [Colchicine], the “scaled lipid accumulation score” value is inactive: 0.537. Further, the “scaled lipid accumulation score” value (library stock concentration: 5 mM) is inactive: 0.127. For the same compound, the “scaled lipid accumulation score” value under setting [1] is inactive: 0.319 and inactive: 0.49 and inactive: 0.08. With `N#C[C@H](O[C@@H]1O[C@H](CO[C@@H]2O[C@H](CO)[C@@H](O)[C@H](O)[C@H]2O)[C@@H](O)[C@H](O)[C@H]1O)c1ccccc1` [Amygdalin], under setting [1], the “scaled lipid accumulation score” value is inactive: 0.097.

In the case of `CC[C@@H](CO)NC(=O)[C@@H]1C=C2c3cccc4c3c(cn4C)C[C@H]2N(C)C1` [Methysergide maleate], the “scaled lipid accumulation score” value under setting [1] was inactive: 0.458 and inactive: 0.048. As for `CC[C@@H](CO)NC(=O)[C@@H]1C=C2c3cccc4c3c(cn4C)C[C@H]2N(C)C1` [Methysergide], where the note is “library stock concentration: 5.7 mM”, the “scaled lipid accumulation score” value is inactive: ≤ 0.

Turning to `CC(C)C1CNC(C(=O)O)C1CC(=O)O` (stereo unspecified) [Dihydrokainic acid], under setting [1], the “scaled lipid accumulation score” value was inactive: 0.08. The same measure, in the same setting: for `CC(=O)N1CC[N+](C)(C)CC1` [4-Acetyl-1,1-dimethylpiperazinium iodide] the value was inactive: 0.017. Turning to `CC[C@@]1([C@H]2O[C@H]([C@H]3O[C@@](O)(CO)[C@H](C)C[C@@H]3C)C[C@H]2C)CC[C@H]([C@@]2(C)CC[C@]3(C[C@H](O)[C@@H](C)[C@@H]([C@H](C)[C@H](OC)[C@@H](C)C(=O)O)O3)O2)O1` [Monensin sodium], the “scaled lipid accumulation score” value (library stock concentration: 7.2 mM) was inactive: 0.508.

Take `C[C@H]1O[C@@H](O[C@H]2CC[C@]3(C=O)[C@H]4CC[C@]5(C)[C@@H](C6=CC(=O)OC6)CC[C@]5(O)[C@@H]4CC[C@]3(O)C2)C[C@H](O)[C@@H]1O` [Helveticoside]: the “scaled lipid accumulation score” value was inactive: 0.504. For the compound `CC(N)C(O)c1ccc(O)c(O)c1` (single isomer, unassigned; (-)) [(-)-alpha-Methylnorepinephrine], under setting [1], the “scaled lipid accumulation score” value is inactive: 0.196. Regarding `CC1C=CC=CCCC=CC=CC=CC=CC(OC2OC(C)C(O)C(N)C2O)CC2OC(O)(CC(O)C(O)CCC(O)CC(O)CC(O)CC(=O)OC(C)C(C)C1O)CC(O)C2C(=O)O` (stereo unspecified) [Nystatin], the “scaled lipid accumulation score” value under setting [1] was inactive: ≤ 0. Same read-out and setting: for `Cl.Oc1ccc2c3c1O[C@H]1c4[nH]c5ccccc5c4C[C@@]4(O)C(C2)N(CC2CC2)CCC314` (stereo partly specified) [Naltrindole hydrochloride] the value was active: 1.1; for `O=c1[nH]c2ccccc2n1C1CCN(CCCC(c2ccc(F)cc2)c2ccc(F)cc2)CC1` [Pimozide], active: 1.15.

`OCc1cnc[nH]1` [4-Imidazolemethanol hydrochloride]: the “scaled lipid accumulation score” value under setting [1] is inactive: 0.159. On to `CO[C@H]1[C@H](O)[C@@H](O[C@H]2CC[C@]3(C=O)C4CC[C@]5(C)[C@@H](C6=CC(=O)OC6)CC[C@]5(O)C4CC[C@@H]3C2)O[C@@H](C)[C@@H]1O` (stereo partly specified) [Peruvoside], for which, under setting [1], the “scaled lipid accumulation score” value is active: 0.873. For the compound `CN1CCc2cc3c(cc2[C@H]1[C@@H]1OC(=O)c2c1ccc1c2OCO1)OCO3` [Bicuculline (+)], the “scaled lipid accumulation score” value is inactive: 0.03.

On to `COC1=CC(=O)O[C@@H](/C=C/c2ccccc2)C1` (racemic) [Kavain (+/-)], for which the “scaled lipid accumulation score” value (library stock concentration: 21.7 mM) was inactive: 0.117. Take `COC1=CC(=O)O[C@@H](/C=C/c2ccccc2)C1` [Kawain]: the “scaled lipid accumulation score” value was inactive: 0.119.
